± gives the standard deviation of the averaged measurements. The list shows a part of the results.

In the assay the test system is PfAP2-EXP AP2 domain (GST-tagged). Description: gcPBM binding intensity (ln(normalized median fluorescence intensity)); higher = stronger DNA binding. The method in brief:
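After 1 h on an Agilent 4 × 180k array of primer-extended double-stranded 36-bp intergenic genomic probes and negative controls, bound GST-tagged P. falciparum DNA-binding domains were detected with Alexa488 anti-GST antibody and scanned at 488 nm. The domains had been expressed in E. coli, and binding took place in 1× PBS with 1% milk, 0.2 mg/ml BSA, 0.5% salmon testes DNA and 0.03% Triton X-100. Binding intensity is the highest Masliner-normalised natural-log median intensity across replicate spots of either probe orientation.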
For the sequence “AAGAAAACTTAAAATAAAAGCATATTTTATCTTACA [TGCATGCA_negctrl_site366]”, the “gcPBM binding intensity (ln)” value amounted to 8.05 ± 0.24.

“TTTCTTACAACAACAACAAAAAAAAATAAATAAAAT [GTGCAC_negctrl_site711]”: the “gcPBM binding intensity (ln)” value turned out to be 8.64 ± 0.53.

For “ATATTTTATATTTCTTGTACATATATTTGTAGATAT [XGTACX_site1140]”, the “gcPBM binding intensity (ln)” value stood at 8.55 ± 0.33.

As to “AATTTATTTTTAAAAAGTACATACTTAAGAAAACGA [XGTACX_site3660]”, the “gcPBM binding intensity (ln)” value amounted to 8.45 ± 0.81.

Take “TATTATTTTTTTATTCTATTAAAAAGAAAAAAATGA [CACACA_negctrl_site407]”: the “gcPBM binding intensity (ln)” value worked out at 7.95 ± 0.47.

As for “GATTCATTTCATAATACACACAACAAATATTTCAAA [CACACA_site120]”, the “gcPBM binding intensity (ln)” value was 8.63 ± 0.4.

Turning to “CCATTTAAAACATTTTGTACTTATTTTACATTTCTG [XGTACX_site4270]”, the “gcPBM binding intensity (ln)” value was 8.7 ± 0.22.

For the sequence “TCGACAATTTTATAAAGTACTTATTAGAAATATGAA [XGTACX_site7133]”, the “gcPBM binding intensity (ln)” value was 8.3 ± 0.34.

In the case of “AGAAAAAAAAATTATACATGCATATACGTTTATTTT [TGCATGCA_site529]”, the “gcPBM binding intensity (ln)” value came to 8.56 ± 0.33.

“AAACAAATAAAATTTATTAAAAAGGTCATATTATTA [CACACA_negctrl_site85]”: the “gcPBM binding intensity (ln)” value was found to be 8.19 ± 0.32.

For “TAAATATATTTCATGACATGCAACTTGTTTTTTTGT [TGCATGCA_site456]”, the “gcPBM binding intensity (ln)” value stood at 8.79 ± 0.42.

On to “TCAACACACGTGGAATGTACTTTAGTATAAGAATTC [XGTACX_site7842]”, for which the “gcPBM binding intensity (ln)” value turned out to be 8.52 ± 0.49.

Take “ATAAAAAAAAGACACACACACATATATATATATATA [CACACA_site3073]”: the “gcPBM binding intensity (ln)” value is 10 ± 0.33.

As for “TCTTTTACAAAAGCTATAACATTCACCACATTATAA [GTGCAC_negctrl_site133]”, the “gcPBM binding intensity (ln)” value came to 8.36 ± 0.38.

In the case of “TATATATATATATAAACACACATAAATATAAATATA [CACACA_site1121]”, the “gcPBM binding intensity (ln)” value turned out to be 10 ± 0.37.

As for “AAAAAAAAAATATACACACACATATATATATATATA [CACACA_site3404]”, the “gcPBM binding intensity (ln)” value was found to be 10.1 ± 0.51.

Turning to ATAATATATACGTGTGTGCACATGACAAAAGCATAT, the “gcPBM binding intensity (ln)” value turned out to be 9.23 ± 0.27.

Consider “GTTAATGTGGTTACTTGTACATATTAACGTCTTTTT [XGTACX_site2617]”, for which the “gcPBM binding intensity (ln)” value stood at 8.65 ± 0.4.

As to “ATATATATATTTTATGCATGTTCATTTTCTATATTT [TGCATGCA_site442]”, the “gcPBM binding intensity (ln)” value stood at 9.56 ± 0.16.

As to “AATAGAACTATTACACGTACAGAACATGAATTAGTT [XGTACX_site7518]”, the “gcPBM binding intensity (ln)” value is 8.48 ± 0.31.

In the case of “TGTTATATATGTAATTGTACACTTATACAAAATTAT [XGTACX_site6350]”, the “gcPBM binding intensity (ln)” value was determined as 8.52 ± 0.22.

With “TTTTTTAATTAGTACAAACACACATATACAGACAAA [CACACA_site2564]”, the “gcPBM binding intensity (ln)” value is 8.99 ± 0.46.

Regarding “AAAAAAATTAGACACACACACACATATAAATATGTA [CACACA_site6618]”, the “gcPBM binding intensity (ln)” value worked out at 8.41 ± 0.57.

With “ATTTAGAATGCGTATACACACATATATAGATTTGCT [CACACA_site626]”, the “gcPBM binding intensity (ln)” value turned out to be 8.56 ± 0.37.

Turning to “ATTTAAAAATAAAGAACACACATATGTAAAATATAT [CACACA_site3754]”, the “gcPBM binding intensity (ln)” value stood at 8.68 ± 0.59.

Take “CAAAATATAACATCATCACACACATATACTTTATAT [CACACA_site8292]”: the “gcPBM binding intensity (ln)” value stood at 8.62 ± 0.21.

Consider “TATTTAAGAGTATGAACACACATCATACACATATAA [CACACA_site3617]”, for which the “gcPBM binding intensity (ln)” value came out at 8.47 ± 0.38.

Turning to “TTATTAATATATAAATGTACATATACAATACATAAA [XGTACX_site5571]”, the “gcPBM binding intensity (ln)” value came out at 8.45 ± 0.34.

“TATGTTTGTGTATATATTTATTTTTATGTAATTATA [GTGCAC_negctrl_site219]”: the “gcPBM binding intensity (ln)” value came to 8.77 ± 0.27.

Consider “TTATATTATATATATAGTACACATGTAATATTTCAA [XGTACX_site1791]”, for which the “gcPBM binding intensity (ln)” value was determined as 8.46 ± 0.27.

For the sequence “ATAAATTAAAGACACACACACATCTGGATACCCCTA [CACACA_site7546]”, the “gcPBM binding intensity (ln)” value was 8.85 ± 0.53.

Take “TACATGCATTTCTCATGTACATAATTTTCCCATATT [XGTACX_site5158]”: the “gcPBM binding intensity (ln)” value was 8.81 ± 0.4.

On to “ATCTATATAATATATACACACAAATATACAAAAAAA [CACACA_site1013]”, for which the “gcPBM binding intensity (ln)” value was 8.64 ± 0.56.

In the case of “TTTTATACATAAATGTGTACGTATATATAATGAATT [XGTACX_site2762]”, the “gcPBM binding intensity (ln)” value turned out to be 8.59 ± 0.32.

On to “TAAATATGCTCACAGATGCACTAACACATTTTTATA [GTGCAC_site9997]”, for which the “gcPBM binding intensity (ln)” value was found to be 8.39 ± 0.16.

Take “TATTGTAGAGGCAAAAGTACACATTTAATAATTTCC [XGTACX_site1151]”: the “gcPBM binding intensity (ln)” value stood at 8.38 ± 0.28.

Take “AAAATTAGGTATATATGTACATATATAAATATATAT [XGTACX_site3555]”: the “gcPBM binding intensity (ln)” value is 8.7 ± 0.35.

As to “TCCTTATATGGGCACACACACACAATAAAATGAAAA [CACACA_site1030]”, the “gcPBM binding intensity (ln)” value was determined as 8.89 ± 0.53.

Turning to “GTTTATATTAAACAAACACACACATATATATATATA [CACACA_site8749]”, the “gcPBM binding intensity (ln)” value was 10.2 ± 0.26.

For the sequence “TATGCTACAAGGAGAACACACAATTGCCACTTTTGG [CACACA_site2166]”, the “gcPBM binding intensity (ln)” value amounted to 8.59 ± 0.53.

Consider “AACCATTATTTCTCTACACACATTTATGTCATTTAC [CACACA_site1499]”, for which the “gcPBM binding intensity (ln)” value amounted to 8.86 ± 0.56.

As to “TATATAATGGTAAAAACACACAAATATGAAGATGTT [CACACA_site722]”, the “gcPBM binding intensity (ln)” value was found to be 8.69 ± 0.39.

Regarding “CGTGTGTCCCCCTTAATCATCCAATCGTTCATTTTG [CACACA_negctrl_site1008]”, the “gcPBM binding intensity (ln)” value came to 8.95 ± 0.26.

On to “AAATATAAAAGTATATGTACATATATATATATATAT [XGTACX_site7446]”, for which the “gcPBM binding intensity (ln)” value is 10.1 ± 0.3.

With “CATATTCCCCCCCACACACACACACCCATACATACC [CACACA_site2303]”, the “gcPBM binding intensity (ln)” value was determined as 11.1 ± 0.18.

With “AATAAATAGATATATACACACATATATCTATAATAT [CACACA_site6557]”, the “gcPBM binding intensity (ln)” value is 8.3 ± 0.36.

In the case of “TCTTCATTTTTATGTGCATGTAAAATTTTTTTTTTT [TGCATGCA_site963]”, the “gcPBM binding intensity (ln)” value worked out at 9.26 ± 0.57.

On to “GACAATAAAAAGAAAAGTACATATATAAATTAACCA [XGTACX_site7858]”, for which the “gcPBM binding intensity (ln)” value is 8.63 ± 0.44.

On to “AGAGGATCATAGTTATGTACACATATTTAACATAAA [XGTACX_site7232]”, for which the “gcPBM binding intensity (ln)” value turned out to be 8.4 ± 0.32.

Take “TTTTTTTCTAATTATGCACACATATCAAAATATTCA [CACACA_site8886]”: the “gcPBM binding intensity (ln)” value was 8.83 ± 0.028.

As to “ATATTTATTATATAATGTACAAAAAAAAAAAAAAAA [XGTACX_site629]”, the “gcPBM binding intensity (ln)” value amounted to 8.14 ± 0.57.

Take “TTACTTAAATATAAGTGTCCTCAAAAAAAAAAAAAA [XGTACX_site460]”: the “gcPBM binding intensity (ln)” value came out at 8.22 ± 0.5.

On to “ATTTTTTATATTAATTGTACATTGTATATATATATA [XGTACX_site8702]”, for which the “gcPBM binding intensity (ln)” value is 9.9 ± 0.2.

Consider “ATGTATGTTTTTTTTTTATTGTTCAAAAAGTTGAAG [CACACA_negctrl_site1276]”, for which the “gcPBM binding intensity (ln)” value was found to be 8.7 ± 0.42.

Take “AATATAAGTTTATTAGTGCACAGATAAATATATATT [GTGCAC_site9784]”: the “gcPBM binding intensity (ln)” value amounted to 8.95 ± 0.11.

For “TTTTTATAAAAATTATTAAAAAAATTATTTATAGCT [CACACA_negctrl_site265]”, the “gcPBM binding intensity (ln)” value was found to be 7.9 ± 0.41.

Values taken from the supplement of paper PMC11417369.
